The source of these data is the RNAGym collection of RNA variant scans (doi:10.7554/elife.90254).

The chains are these.
B1: LINE1-mini (parent)
chain: GGCAGAGCUCAACACAGCGUGGCAAAGUGGCUGUGGCUAGACUGCC

Read counts are not given, so values of variants with three or more changes are uncertain.

In this series the parent is B1. Put plainly: self-cleavage, relative activity (ratio to wild type); higher = more cleavage; in vitro, sequencing; the parent is a self-cleaving ribozyme.
As to U9A A14G G29A G35C, the self-cleavage worked out at 0.02.
Under C8U U28A A41G C45A stands 0.39; under C8U G35U G44A, 0.26.
Under C8U U43C G44A C45A stands 0.02; under U9A C15A U32G C37A, 0.2; under U9A C13U U32G G33A A39G U43A, 0.05.
Regarding U9A A12C G36A C37U, the self-cleavage came to 0.07.
With U9A C13U C37A C46A the figure was 0.68; with U9A C10U A11U C37G U43G, 0; with U9A G29A G40U, 0.04.
For U9A U28A G30U C42G, the self-cleavage came to 0.11.
On to U9A A16G G35U C42A, for which the self-cleavage was found to be 0.03.
As for U9A C10A U43G C45U, the self-cleavage amounted to 0.07.
Under U9A G19C U20G G29C G44U stands 0.03; under U9A U20G U32G G36U, 0.05.
With C8U U9A G22U U28C A39G U43G C46A the figure was 0.04; with U9A A12C A16G G22U, 0.02; with C8U G33A U34G A39C G44A, 0.01.
With U9A C13G U38C G40A, the self-cleavage worked out at 0.07.
For the variant C8U U9A C10A G27U, the self-cleavage was 0.02.
Under U9A G21A G27U C45A stands 0.78; under U9A C15A G21C C31A, 0.08.
For the variant U9A A12C U34C, the self-cleavage was found to be 0.01.
Under C8U U28A G30A C31U stands 1.06; under U9A A14C A26G, 0.02.
With U9A C15A A24G A39G, the self-cleavage is 0.1.
As to U9A A12U C13A U28G G30C G35C, the self-cleavage turned out to be 0.14.
With U9A C13G G40C the figure was 0.07.
With U9A A14U C23U C42U the figure was 0.03; with U9A A24U C37U, 0.07.
For the variant U9A A26G C31G, the self-cleavage was 0.1.
As to U9A G21U A25U G35C C37U, the self-cleavage was determined as 0.13.
Under U9A C18A U34C stands 0.05; under U9A U38C G44U, 0.05; under U9A U20G A41U, 0.14.
With U9A A11U G22U A41C the figure was 0.01; with C8U U9C G29U G30U, 0.13; with U9A U28C G33C, 0.03.
Under C8U U9A C10G stands 0.05; under U9A G22A G44A, 0; under U9A C13A G30U G35U G36A U38C C42G U43C C46U, 0.09.
With U9A C10A C15A U43A, the self-cleavage was 0.
With U9A U32A G33C C45A the figure was 0; with U9A C15A U38G, 0; with U9A C31G U32G, 0.19.
As for C8U U9C G21U C37G, the self-cleavage was 0.03.
Consider C8U G35A A39C, for which the self-cleavage amounted to 0.12.
U9A C15U A39U A41G: the self-cleavage was 0.31.
Under U9A C13U G17C G22U C37U stands 0.13.
Take U9A A14G C23A G36U: the self-cleavage was determined as 0.15.
With C8U U9C A12C C23A the figure was 0.01.
On to U9A A11C G29U C46G, for which the self-cleavage worked out at 0.01.
With U9A A24U A25U G35A the figure was 0.16.
As for U9C A11C G21A, the self-cleavage was determined as 0.02.
On to U9A C13A G22C C46U, for which the self-cleavage amounted to 0.16.
Turning to C8U U43C C45A, the self-cleavage worked out at 0.3.
Under U9A U28A U32C U34A C42U stands 0.12.
On to U9A U20C G29C U43G, for which the self-cleavage worked out at 0.02.
Under U9A A24U G40U stands 0.04; under C8U U9G G27A G29U A41C, 0.05.
U9A G33A C37A A41U: the self-cleavage was 0.13.
On to U9A A11U G17A C23G, for which the self-cleavage stood at 0.03.
For the variant U9A G22U C37A C45U C46A, the self-cleavage was 0.99.
U9C A11G G21U A39C: the self-cleavage was determined as 0.
On to U9A A16C C31U, for which the self-cleavage turned out to be 0.04.
With U9A C10G G27U G36A, the self-cleavage worked out at 0.03.
In the case of U9A C10G U28A G44C C46U, the self-cleavage stood at 0.01.
Turning to U9A A26U G35U C45A, the self-cleavage amounted to 0.21.
Under U9A A24G C37A stands 0.27.
On to U9A G21U C37A, for which the self-cleavage amounted to 0.11.
With U9A G27C U34A G40A the figure was 0.14; with U9A G27U G44U C45A, 0.01; with U9A C13G G36C A41G, 0.03.
For U9A G27C G36A U43G, the self-cleavage worked out at 0.2.
With U9A A12U G27U G35U A39U A41C the figure was 0.05.
Under U9A A24U G44A stands 0.4; under U9A A14C C18A G19U, 0.03.
On to C8U G33C C37A, for which the self-cleavage is 0.02.
Regarding U9A A25G U32C C37A, the self-cleavage stood at 0.01.
Take U9A C37A G40C: the self-cleavage was 0.18.
Under U9A G22C C37U C45A C46A stands 0.08; under C8U U9A A16U G30U U32A A39U, 0.07; under C8U U34C G36A G40U, 0.09.
With U9A A12C G30U U32C the figure was 0.02; with U9A G19A A41U, 0.1.
With U9A G29U C37A C46G the figure was 0.22; with U9A A14C G17U G36A, 0.05; with U9A A14U G22U C45U, 0.27.
For C8U U9G C31U C42U, the self-cleavage turned out to be 0.03.
Under C8U U9G A12C stands 0.04; under U9A G21U U28G, 0.09; under U9A A14U G21A U28G, 0.02.
Under U9A C15G C31A stands 0.1; under C8U U20G C42A, 0.09.
Under U9A A16G C23G U34C stands 0.11.
On to C8U U9G C15U C18A C31G G40C, for which the self-cleavage stood at 0.04.
With U9A C15U G30A C31G the figure was 0.02; with U9A C13A A24G C42U, 0.05.
Under U9A C10U A24U G33A U34C stands 0.02.
Under U9A C18A C37A C42G stands 0.02; under U9A C13G G19A A26C A39U C46A, 0.15.
Regarding U9A A14C C45U, the self-cleavage came to 0.16.
With U9A U28G C31U G33A G40A the figure was 0.05; with U9A A14U G22C G36U, 0.17.
With U9A C10G C18A U34G the figure was 0.03; with U9A G17A G21A U38A, 0.15.
Under U9A C23U G27C stands 0.03; under C8U U9G C10G U20C G22U U28A U38G, 0; under U9A A14U G19U G29U, 0.04.
As to U9A C18U G19U C37U, the self-cleavage came to 0.11.
As to U9A G29U U32C C42A, the self-cleavage was found to be 0.22.
As for U9A G17U G27C, the self-cleavage is 0.05.
As to U9A C10U G22A, the self-cleavage was 0.07.
Consider U9A A39U C45A, for which the self-cleavage was found to be 0.04.
With U9A A11U G19A C31U A41G the figure was 0.01.
With C8U U34G G44U the figure was 0.06; with U9A C10A A14G, 0.04.
Under U9A G21U U32C G36C stands 0.04; under U9A A14U G19A, 0.26; under C8U U9C A26U G33U A41C, 0.03.
Turning to U9A C15U G17A, the self-cleavage stood at 0.49.
Consider U9A A25U A26G, for which the self-cleavage amounted to 0.08.
Take U9A C18U U32G C46A: the self-cleavage is 0.3.
With C8U U9G C15G G27A the figure was 0.04; with U9A U28C G36C U43G, 0; with U9C A11C U28G, 0.03.
With U9A G36A G40A the figure was 0.13; with U9A A16G C42A, 0.02; with U9A U20G G36A, 0.26.
With U9A A12C C37A A41G the figure was 0.04.
As for C8U G35A C42G, the self-cleavage was 0.24.
For U9A U34A A39C, the self-cleavage was determined as 0.11.
With U9A U34A A39G, the self-cleavage came out at 0.51.
As to U9A G17A G27A, the self-cleavage was 0.1.
Under U9A G19A G29U stands 0.16; under U9A A24U A25U G35C G36C, 0.02.
In the case of U9A A11C C23U A26G, the self-cleavage was 0.01.
On to U9A C13U G22C, for which the self-cleavage is 0.04.
As to C8U U20G A39G, the self-cleavage is 0.
Take U9A A24U G36A: the self-cleavage was 0.18.
With U9C A11C U20C A25G the figure was 0; with U9A U20A C23U, 0.1; with U9A G21A G30U A41G U43C, 0.
On to U9A C13G C42A, for which the self-cleavage was 0.43.
Under U9A C10A A11C stands 0.02; under U9A A16C C18G G44A C45U, 0.06; under C8U U9G A39G, 0.04.
Under U9A G19C C37A stands 0.02; under U9A C13A G19C, 0.06.
Consider U9A C13U G35U, for which the self-cleavage turned out to be 0.09.
With U9A G29A C42G C46G, the self-cleavage is 0.01.
Take U9A U28A C42A: the self-cleavage turned out to be 0.23.
With U9A C31A G44A the figure was 0.02; with U9A C13A G17U A26U G33A, 0.06.
With C8U U9A A11G G40U the figure was 0.03.
Under U9A G33A C46U stands 0.1; under U9A A11U A16G G40C, 0.
In the case of U9A C10G A16G G30U, the self-cleavage was determined as 0.01.
With U9A C13G G27C G33C A39G the figure was 0.04.
For C8U U20A U28C G35A G36A C45U, the self-cleavage worked out at 0.03.
Regarding U9A C10G A26U C42A, the self-cleavage was found to be 0.01.
With U9A C13G U28C the figure was 0.12; with U9A G27U G29U C46A, 0.22.
Under U9A A26U G35A C42G stands 0.1; under U9A A11U G29U, 0.01; under C8U U9C C10G G27C, 0.01.
Take C8U U9A C15U G19U G22A U34A G35U U43A G44U: the self-cleavage is 0.14.
